Experimental data as given in PubChem BioAssay AID588855 (National Center for Advancing Translational Sciences (NCATS), 2011).
In all, about 410,000 compounds went through this assay and about 5,000 (1.2%) were called active. Inconclusive means that the source gave no clear call. Such entries were picked first, then a sample of the others. Calls follow the shape of the dose curve; as a rule, active = well fitted inhibition curve with a large enough effect; inconclusive = small, poorly fitted or top-dose-only effect; inactive = no such curve, though single readings can be large or run the other way. Potencies beside an inconclusive call are fits to weak or partial responses and may not hold up.

experiment: qHTS for Inhibitors of TGF-b; conditions: HepG2 CAGA-GFP TGF-b/SMAD3 reporter, GFP fluorescence, 18 h, TGF-beta stimulated, 500 pg/mL final; series mostly up to 46.1 µM; activity, negative = inhibition: at the top concentration; also: nearly all actives have a fitted effect of over 65% in size
In short: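 Read-out: total well GFP (ex488/em500-530) summed from mean per-cell fluorescence. Cells: HEPG2 CAGA-GFP, 1% FBS DMEM, 18 h at 37 degrees C with 500 pg/mL final TGF-beta. Unstimulated wells served as the full-inhibition control; stimulated DMSO wells = 0%.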
% is scaled to controls: 0 for no effect and ±100 for the full control effect; potency is read from the fitted curve at half-maximal effect; tags tell the direction and shape of the fitted curve.

Row | Structure (SMILES) | Potency | activity, negative = inhibition
1 | COc1cc(CNC(C)(C)CO)cc(Br)c1OCc1ccc(Cl)cc1Cl | inconclusive: 25.1 µM [inhibitor, single point] | 
2 | CCOc1cccc2sc(NC(=O)c3ccc(S(=O)(=O)N4CCCc5ccccc54)cc3)nc12 | inconclusive: 15.8 µM [inhibitor, single point] | 
3 | Cc1ccccc1S(=O)Cc1ccc(C(=O)NC2CCCCCC2)o1 (centres undefined) | inconclusive: 17.8 µM [inhibitor, single point] | 
4 | COc1ccc(Nc2ncccc2C(=O)Nc2ccccc2)cc1 |  | inactive: 21.8%
5 | O=C(Nc1ccc(C(F)(F)F)cc1)c1cc(S(=O)(=O)NC2CCCCCC2)ccc1F | inconclusive: 25.1 µM [inhibitor, single point] | 
6 | Cc1ccc(C)c(NC(=O)Nc2nnc(N(CC(C)C)CC(C)C)s2)c1 | inconclusive: 15.8 µM [inhibitor, single point] | 
7 | CNC(=S)N/N=C/c1cccc(OCc2ccccc2F)c1 | inconclusive: 0.708 µM [inhibitor, full curve, poor fit] | 
8 | COc1ccc(C(=O)Nc2sc(C)c(-c3ccccc3)c2C#N)cc1OC |  | inactive: -34.9%
9 | Cc1ccc(NC(=O)CSc2ncnc3ccccc23)cc1S(=O)(=O)N1CCCCC1 | inconclusive: 11.2 µM [inhibitor, partial curve, poor fit] | 
10 | O=C(CN(Cc1ccccc1)C(=O)CCl)c1cccc(Br)c1 | inconclusive: 11.2 µM [inhibitor, partial curve, poor fit] | 
11 | S=C(NCCc1ccccc1)NCCc1ccccc1 | inconclusive: 35.5 µM [inhibitor, single point] | 
12 | CCCCNC(=O)NNc1nc(Cl)cc(C)c1C#N |  | inactive: -0.527%
13 | CCOC(=O)C1(CCOc2ccccc2)CCN(Cc2cc(OC)c3c(c2)OCO3)CC1 | inconclusive: 12.6 µM [inhibitor, single point] | 
14 | CCN(CC(=O)Nc1c(F)cccc1F)C(=O)/C=C/c1c(C)nn(-c2ccc(F)cc2)c1C | inconclusive: 8.91 µM [inhibitor, partial curve] | 
15 | CCN(C(=O)COC(=O)c1ccccc1Cc1ccccc1)c1c(N)n(Cc2ccccc2)c(=O)[nH]c1=O | inconclusive: 17.8 µM [inhibitor, single point] | 
16 | Cn1c(N)c(C(=O)COC(=O)c2ccc3c(c2)OCCO3)c(=O)n(C)c1=O |  | inactive: -4.84%
17 | NCCC(=O)N1c2ccccc2Sc2ccc(Cl)cc21 | inconclusive: 28.2 µM [inhibitor, single point] | 
18 | C=C1CCN(c2ccc(C(=O)NCc3ccc(C)cc3)cc2[N+](=O)[O-])CC1 |  | inactive: -0.633%
19 | CCC[C@@H](CN[C@@H](CNC)[C@H](C)CC)NCC1CCC(C(C)(C)C)CC1 (some centres undefined) | inconclusive: 35.5 µM [inhibitor, partial curve, poor fit] | 
20 | c1ccc(C(c2nnnn2Cc2ccco2)N2CCN(c3nc4ccccc4s3)CC2)cc1 (centres undefined) |  | inactive: -2.05%
21 | O=C(Nc1cnn(Cc2ccc(Cl)cc2Cl)c1)c1cc(-c2cccs2)on1 | inconclusive: 6.31 µM [inhibitor, single point] | 
22 | COc1ccc(CCNc2oc(COc3ccc(Br)cc3)nc2C#N)cc1OC | inconclusive: 17.8 µM [inhibitor, single point] | 
23 | O=C(Nc1nc2c(s1)CCCC2)c1ccc2ncsc2c1 |  | inactive: -18.1%

Row | Structure (SMILES) | Potency | activity, negative = inhibition
24 | CC(=O)c1ccc(N2CCN(C(=O)C3CCN(S(=O)(=O)c4ccc(Br)s4)CC3)CC2)cc1 | inconclusive: 2.82 µM [inhibitor, full curve] | 
25 | Cc1oc2c(c1C(=O)N1CCOCC1)C(=O)c1ccccc1C2=O | active: 4.47 µM | 
26 | O=C(CN1CCN(c2ccccc2)CC1)c1c[nH]c2ccccc12 | inconclusive: 35.5 µM [inhibitor, single point] | 
27 | CC(=NNC(=S)Nc1ccccc1)c1ccccn1 | inconclusive: 1.41 µM [inhibitor, partial curve] | 
28 | CCc1ccc(NC2=CC(=O)C(=O)c3ccccc32)cc1 | active: 2 µM | 
29 | CC(C)CCN(C(=O)Cc1ccc(Cl)c(Cl)c1)c1c(N)n(Cc2ccccc2)c(=O)[nH]c1=O |  | inactive: -8.4%
30 | COCCCNC(=O)c1cn(CC(C)C)c(=O)c2c1c1ccccc1n2C | inactive | 
31 | Cc1cccc(-c2noc(-c3cc(C(C)C)[nH]n3)n2)c1 | inconclusive: 35.5 µM [inhibitor, partial curve, poor fit] | 
32 | CC(=O)N(C)c1ccc(NC(=O)C(Sc2ccccc2)c2ccccc2)cc1 (centres undefined) |  | inactive: 4.9%
33 | CC1=CC(=O)C(C(C)C)=C/C1=N/OS(=O)(=O)c1ccccc1 | active: 5.01 µM | 
34 | CCNC(=S)N(Cc1cc2cccc(C)c2[nH]c1=O)C1CCCC1 |  | inactive: 9.36%
35 | CC(CCc1ccccc1)NC(=O)C(=O)c1c[nH]c2ccccc12 (centres undefined) | inconclusive: 35.5 µM [inhibitor, single point] | 
36 | CCC(C)Sc1cc(-c2nc3cc(C)ccn3c2NC2CCCCC2)ccc1OC (centres undefined) | inconclusive: 35.5 µM [inhibitor, single point] | 
37 | Cc1c(Cl)cccc1NC(=S)N=Nc1c(O)n(CN2CCOCC2)c2ccccc12 | active: 5.01 µM | 
38 | Cc1ccc(CCNS(=O)(=O)c2ccc3c(c2)C(C(C)C)C(=O)N3)cc1 (centres undefined) | inconclusive: 15.8 µM [inhibitor, single point] | 
39 | O=S(=O)(Nc1ccc2c3c(cccc13)CC2)c1ccccc1 | inconclusive: 25.1 µM [inhibitor, single point] | 
40 | O=C(CC12CC3CC(CC(C3)C1)C2)N/N=C/c1ccc([N+](=O)[O-])o1 | inconclusive: 4.47 µM [inhibitor, single point] | 
41 | CCCS(=O)(=O)Nc1ccc(Nc2c3ccccc3nc3ccccc23)c(OC)c1 | active: 10 µM | 
42 | COC(=O)c1ccccc1NC(=O)c1nc(-c2ccc(C)cc2)n2c1CCCCC2 |  | inactive: 6.9%
43 | O=C(CN1CCN(Cc2ccccc2F)C1=O)NCc1cccnc1 | inconclusive: 10 µM [inhibitor, partial curve, poor fit] | 
44 | O=C(NC(=S)Nc1ccc(CN2CCOCC2)cc1)c1ccc2c(c1)OCCO2 | inconclusive: 35.5 µM [inhibitor, single point] | 
45 | c1coc(CNc2c3c(nc4ccccc24)CCC3)c1 | inconclusive: 22.4 µM [inhibitor, single point] | 
46 | COc1cc(OC)c(C2CC(=O)Nc3ccc4ccccc4c32)cc1OC (centres undefined) | inconclusive: 17.8 µM [inhibitor, single point] | 

Row | Structure (SMILES) | Potency | activity, negative = inhibition
47 | COC1=C(OC)C(=O)C(Sc2ccc3ccccc3c2)=CC1=O | inconclusive: 17.8 µM [inhibitor, single point] | 
48 | O=C(c1ccc(F)cc1Cl)N1CCN(CCc2ccccc2)CC1 | inconclusive: 5.62 µM [inhibitor, single point] | 
49 | COc1ccccc1Nc1nc(NCCO)nc(N)c1[N+](=O)[O-] | inconclusive: 3.55 µM [inhibitor, full curve, poor fit] | 
50 | CN(C)S(=O)(=O)c1cccc(NC(=O)COc2ccc(S(=O)(=O)N3CCOCC3)cc2Cl)c1 |  | inactive: 20.1%
51 | CS(=O)(=O)c1ccc(C(=O)OCC(=O)NC(=O)NC2CCCCC2)cc1[N+](=O)[O-] | active: 4.47 µM | 
52 | Cc1cccc(CC(=O)NCC(=O)NCc2cc(=O)n(C)c(=O)n2C)c1 |  | inactive: 16.4%
53 | O=C(NCCC1=CCCCC1)c1ccc2c(c1)sc1nc(-c3ccc(F)cc3)cn12 |  | inactive: -22.1%
54 | COC(=O)c1ccc(C2C(C(=O)Nc3ccc(C)cc3C)=C(C)Nc3ncnn32)cc1 (centres undefined) | inconclusive: 25.1 µM [inhibitor, single point] | 
55 | Cc1cccc(NC(=O)CN2C(=O)C3(SCC(=O)N3c3ccccc3)c3ccccc32)c1 (centres undefined) | inconclusive: 15.8 µM [inhibitor, single point] | 
56 | Cc1csc(NC(C)c2nc3cc(Cl)c(N4CCCCC4)cc3n2CCOCCO)n1 (centres undefined) |  | inactive: -10.4%
57 | Cc1ccc(Cn2c(C(=O)O)c(CNCc3ccc(C)o3)c3ccc(C)cc32)cc1 | inconclusive: 35.5 µM [inhibitor, single point] | 
58 | CCN1CCN(c2sc(S(=O)(=O)CC)nc2S(=O)(=O)c2ccc(C)cc2)CC1 |  | inactive: -1.97%
59 | Cc1cccn2cc(-c3ccc(S(=O)(=O)N4CCOCC4)cc3)nc12 |  | inactive: -4.57%
60 | O=S(=O)(c1ccccc1)[C@@]1(c2ccc(Br)cc2)C[C@@H]2ON=C(c3cccc(Br)c3)[C@@H]2C1 | inconclusive: 35.5 µM [inhibitor, single point] | 
61 | Cc1ccc(S(=O)(=O)N2CCN(Cc3ccccc3Cl)CC2)cc1 | inconclusive: 35.5 µM [inhibitor, single point] | 
62 | Cn1c(=NC(=O)CCl)sc2ccccc21 | inconclusive: 20 µM [inhibitor, single point] | 
63 | Cc1ccc(Cl)cc1N1CCN(S(=O)(=O)c2cccc(S(=O)(=O)N3CCCC3)c2)CC1 |  | inactive: -22.3%
64 | COc1ccc(S(=O)(=O)Nc2ccc(S(=O)(=O)N(C)C)cc2)cc1[N+](=O)[O-] | inconclusive: 0.316 µM [inhibitor, full curve] | 
65 | CCN(CC)c1ccc(C(=S)N2CCN(c3ccccc3)CC2)cc1 | inconclusive: 31.6 µM [inhibitor, single point] | 
66 | CC(=O)Nc1ccc(NC(=O)C2(C)CC2(Cl)Cl)cc1 (centres undefined) | inconclusive: 6.31 µM [inhibitor, single point] | 
67 | Cc1nc(C)c(C(=O)N/N=C/c2cc(Br)ccc2O)s1 | inconclusive: 1 µM [inhibitor, full curve, poor fit] | 
68 | CCCCn1c(N)c(NCc2ccccc2OC)c(=O)[nH]c1=O | inconclusive: 0.631 µM [inhibitor, partial curve, poor fit] | 
69 | S=C(NCC1CCCO1)Nc1ccccc1Cl (centres undefined) | inconclusive: 12.6 µM [inhibitor, single point] | 
